# According to the supplement of paper PMC11417369:
# ± gives the standard deviation of the averaged measurements. Some of the results follow.
# Tested on: PfAP2-EXP AP2 domain (GST-tagged)
# Assay: gcPBM binding intensity (ln(normalized median fluorescence intensity)); higher = stronger DNA binding
# Summary of the method: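 Binding intensity values are the highest Masliner-normalised natural-log median intensity among replicate spots of either probe orientation. The binding step lasted 1 h in 1× PBS with 1% milk, 0.2 mg/ml BSA, 0.5% salmon testes DNA and 0.03% Triton X-100, using GST-tagged P. falciparum DNA-binding domains expressed in E. coli on an Agilent 4 × 180k array of primer-extended double-stranded 36-bp intergenic genomic probes plus negative controls. Alexa488 anti-GST antibody and a 488 nm scan detected bound protein.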
row,Sequence,gcPBM binding intensity (ln)
1,TAAATACATAGATGTACACACATTACAGATGTACAT [CACACA_site4692],8.48 ± 0.32
2,TATAAAATAAAAAATAAATATCTATATATATATATA [TGCATGCA_negctrl_site351],9.96 ± 0.33
3,TTGTGTTATCCTTTTTTAGATCAACTATTTTTATTC [CACACA_negctrl_site145],8.54 ± 0.4
4,ATAAAGCACACCGACACACACATATTTATATTTATA [CACACA_site6620],8.79 ± 0.12
5,TATATATATATATATGTGCGCATATATTTTTTTGTA [GTGCAC_site9983],10.1 ± 0.18
6,ACAAAATTTACAAAATGTACAAAATATACAAAATAT [XGTACX_site6465],8.55 ± 0.43
7,TATTCTTATATATATACACACACAAAATATCTACAA [CACACA_site8144],8.58 ± 0.33
8,TTGCATTGATCAAACATACACACATGGTTAATAAAA [CACACA_site2084],8.64 ± 0.47
9,CATGAGGTATAAAAGGTGCAAATTAATGAGAACATT,9.09 ± 0.17
10,TTATATCAAGGGAATGCATGCATATCGTTTTGTATT [TGCATGCA_site327],9.85 ± 0.63
11,ACTAGACAAAATATAATGCACACTATTATTTTTATT [CACACA_site2726],8.795 ± 0.049
12,AATAATATACATATATATATTATATTGTAATTTTGT [TGCATGCA_negctrl_site1],8.08 ± 0.41
13,TATTTCTCACTGTATGGTACAGATATAAATTTTTAT [XGTACX_site8776],8.54 ± 0.34
14,ATCAAATTTTTGTTATGTACACAATCATTTAATAAA [XGTACX_site810],8.41 ± 0.37
15,ATTACAATAAATTCGTGTACATGATACCGCCGCTAC [XGTACX_site8997],8.77 ± 0.45
16,CACAAATAAATATTCACACATATATGTCTTATATAT [CACACA_site5323],8.34 ± 0.38
17,AAAAAAAAAAAATAGGTGCGTGTTACTTTTGTATGC [GTGCAC_site9524],8.7 ± 0.49
18,TAATTATTATTAAATACACACACATACCTCCATGTT [CACACA_site9134],8.49 ± 0.39
19,AAACAGATAAATAAAAGTACACATTAAAAGGTAGCA [XGTACX_site4150],8.66 ± 0.3
20,ATATATATGTATAATCGTACAGTTAACGTATTCTTA [XGTACX_site5649],8.64 ± 0.38
21,TAATTAATTTCTTTACGTACATAATTAATATATATA [XGTACX_site7372],8.63 ± 0.31
22,GGATTTTAATGAACACGTACATAAAATTAAATAAAT [XGTACX_site7023],8.63 ± 0.3

row,Sequence,gcPBM binding intensity (ln)
1,GGTTCATAATATGGTTGTACATAAATATATATATAT [XGTACX_site7583],9.89 ± 0.33
2,GGGAGGATAGTTCACAGTACCCAGGAAATCTACGGA [XGTACX_site2553],8.81 ± 0.44
3,AATGGGTAAACATACACACACACATCTATATTTATA [CACACA_site7025],8.44 ± 0.67
4,TAACAAGGTTTATATGCATGCAAACATAACCAAAAA [TGCATGCA_site824],9.96 ± 0.23
5,CTTTGCCTTAAAAAGGAACACACATGCTTTTTTTAG [CACACA_site8219],8.28 ± 0.38
6,TACTATATCATTTATTGTACAATATTTCTTCAGAAA [XGTACX_site1008],8.73 ± 0.4
7,TATAAAAGACTAAATATTATAGAAATATAAATATAA [TGCATGCA_negctrl_site237],8.13 ± 0.23
8,TGCTTCATAAATAAAACATGCAATATAGAAATTAAA [TGCATGCA_site690],8.62 ± 0.4
9,TTATTTTCTTTCTATGCACACGCACGTATTTGCCCA [CACACA_site9104],8.93 ± 0.22
10,TATAGTAAAATTAGGGTGCTTTTGTAACAAAAAAAA,8.77 ± 0.2
11,AGAGTAGGAAATGGAAAAATAAAATAAATAAATAAA [XGTACX_negctrl_site69],8.7 ± 0.42
12,AAATATATATACCACACACACATACCTCTATTTGTA [CACACA_site1854],8.74 ± 0.51
13,TTTTGTAAAAGGTATATATATATATATATATATATA [GTGCAC_negctrl_site734],10.1 ± 0.49
14,CGTATTTTAATATTTACACACTTATTTTTTATATAA [CACACA_site125],8.55 ± 0.29
15,AATAAAAAAATAAAAAAAAAAAAAAATAAAAAAAAA [GTGCAC_negctrl_site12],8.26 ± 0.35
16,TATAGCATATTTCACACACACATAATGAATATTATA [CACACA_site3545],8.37 ± 0.46
17,TTTATATAGAAAAATTGTACGAATTACTTTTTTATA [XGTACX_site6843],8.07 ± 0.13
18,AAAATGTACTTTTTCTAAAGAGTAATGATGCTTGAT [CACACA_negctrl_site1124],8.52 ± 0.45
19,TTTAACGTTGAATATACACACATATATTTATTTATA [CACACA_site7695],8.32 ± 0.3
20,AATCCTTTAAAACACACACACAAAAAAAAAAAAAAA [CACACA_site642],8.13 ± 0.49
21,TTTTTAATACAAAAAAAATAATATGTTATATTTCAA [CACACA_negctrl_site35],7.92 ± 0.43
22,ATGAAATATGCACAGTGTACTTTTATGAGGAACATA [XGTACX_site426],8.65 ± 0.26

row,Sequence,gcPBM binding intensity (ln)
1,GGGAATATATAAGATACACACACAAATTAAATATAA [CACACA_site8898],8.68 ± 0.45
2,AATTAACCGTGACACACACACATATAAATATAAATA [CACACA_site7790],8.59 ± 0.37
3,TGCCCTTTGGTTATAACACACATGCACACGTAAATA [CACACA_site7750],8.96 ± 0.41
4,TATATATATATATATACACACACACCCACCAAAGCG [CACACA_site7904],10.3 ± 0.26
5,AATAAAATAATAGGCACACATATATATATATATTAT [CACACA_site273],8.69 ± 0.34
6,ATATCCTACTTCTAGTGTACATATATGGACTGATGA [XGTACX_site3683],8.87 ± 0.35
7,ATATATCTACATATATGTACATATATGTATATGTAT [XGTACX_site5432],8.41 ± 0.2
8,TACAATTTATGACACACACACAATAATACCTATATA [CACACA_site6704],8.6 ± 0.52
9,AAAAAAAAAAAACACACACACACACTAGTACATACA [CACACA_site4551],8.78 ± 0.5
10,TATATATATATATGTGCACACATAAAGATATTATTT [CACACA_site3734],10.2 ± 0.45
11,AAAATAAAAAGAAAAAATAAAAAGAAAAAATAAAAA [CACACA_negctrl_site120],8.33 ± 0.44
12,TTATATAATCCTTTCAAACACACAAAATATAATTAA [CACACA_site1830],8.43 ± 0.39
13,AGTGAAAAAAAATTTACACACATAAAATATAAACGA [CACACA_site3724],8.7 ± 0.4
14,TAATACTTTTAATCTACACACGCTGAGACATGCTTT [CACACA_site1484],8.37 ± 0.41
15,TTTTTTATTCTTTTTGCACACAGGAAATTTACAGAT [CACACA_site1090],8.89 ± 0.26
16,TTTTTAGTTCATTAAACACACAAAAAAAAAAATAAA [CACACA_site6035],8.29 ± 0.48
17,AAATAAAATACATATAAACACACATATAAACCAACA [CACACA_site8789],8.88 ± 0.61
18,AAAAAAAATATAAGTGGTACTCACATAAAGACATAT [XGTACX_site3709],8.84 ± 0.42
19,ATAAATAATTGTAGTTGTACATGATATTTTTATTAC [XGTACX_site550],8.36 ± 0.33
20,AAAAAAAAAAAAAACACACACACAAATACAAATACA [CACACA_site414],8.6 ± 0.57
21,TACAAAAAAAGATGATGTACAATGAAAAATAAGAAA [XGTACX_site5840],9.18 ± 0.37
22,AAATGGACCTAATTATCACACATTATACTCGTTTTC [CACACA_site5996],8.56 ± 0.43

row,Sequence,gcPBM binding intensity (ln)
1,ATATATCATAATAAAAGTACTTATATATTTTATATA [XGTACX_site560],8.19 ± 0.33
2,AAAATAAATAAATATACACACCATATATATATTTTT [CACACA_site5573],8.3 ± 0.42
3,ATATTTATAACTTGTACACACAAATATGCATATATA [CACACA_site7583],8.84 ± 0.33
4,TTATTATTCCCTCATTTTGTTACCATTATTTCAATT [CACACA_negctrl_site1023],9.12 ± 0.4
5,TTAAAATTTTTTTTTTTTTTTTTTTTTTTTTTTTTC [CACACA_negctrl_site957],7.71 ± 0.56
6,TTGTTAAAATTATTAAGTTAAATATCGATTTGTAAA [XGTACX_negctrl_site429],8.06 ± 0.41
7,TATAAGTTTATATATACACACATATATATATATATA [CACACA_site3274],10.2 ± 0.34
8,TAAAATGAATATAGGTGTACTTAAAAAAAAGTAAAA [XGTACX_site4613],8.57 ± 0.23
9,TAAAAGAAATAATATACACACATATATAAAAATAAA [CACACA_site1329],8.51 ± 0.51
10,TAAATTCTTTATAATCGTACATAAATAGAAAAATAA [XGTACX_site601],8.52 ± 0.33
11,TATCGAGCCATTTTTACATGCAATTATACATAATTT [TGCATGCA_site987],8.96 ± 0.42
12,CATGTATACTATAATACACACTATAAAATATACACC [CACACA_site7121],8.53 ± 0.19
13,TTCAAATAATTTAAATGTACGTTGCTTTATTAAAAG [XGTACX_site3674],8.38 ± 0.28
14,ATGATGAAAATAGAAATACACACTAAAAAATAAAAT [CACACA_site1136],8.71 ± 0.7
15,ATAAATAATAAAAAATGTACACATATAAATATAAAG [XGTACX_site727],8.705 ± 0.078
16,AAAACATGTTCAACATGTACACAACAGGATGAATAT [XGTACX_site506],8.95 ± 0.42
17,AAATATATGTTATATGTGCACTTTTTTTTTTTTTTT [GTGCAC_site9667],8.86 ± 0.092
18,CTTACTTACTTACTCACACACATATACAAAGAAAAA [CACACA_site3347],8.74 ± 0.38
19,TTTTACTAAATATATACACACATTATACATATATAT [CACACA_site9081],8.52 ± 0.3
20,TGTTAAAAGGTTAAATTAAAATAACCTCCGGAAATT [GTGCAC_negctrl_site236],8.34 ± 0.48
21,GAATGCATGTAAATATGTACATATATTTAAAAATTT [XGTACX_site6032],8.89 ± 0.41
22,AAAAAAATTTCACATTGTACTTTAATAATATACTAC [XGTACX_site7264],8.31 ± 0.25
